Assay [1] addresses T1, human glycolipid transfer protein (GLTP), pGBKT7-GLTP ORF (human) (UniProt Q9NZD2).
T1 sequence: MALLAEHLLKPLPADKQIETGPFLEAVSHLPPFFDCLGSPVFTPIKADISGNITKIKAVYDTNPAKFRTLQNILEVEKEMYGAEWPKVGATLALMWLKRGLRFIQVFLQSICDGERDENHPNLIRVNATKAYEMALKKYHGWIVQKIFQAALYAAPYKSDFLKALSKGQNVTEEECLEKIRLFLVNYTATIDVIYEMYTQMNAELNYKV
As to the kind of experiment: two-hybrid; Matchmaker GAL4 Two-Hybrid System 3; pGBKT7-GLTP in AH109 mated with Y187 holding a human brain cDNA library in pACT2; confirmed by cotransformation; growth and blue colour on SD with X-α-gal lacking Trp, Leu, His, Ade.

A further assay has as its target T2, EGFP-GLTP (human) (UniProt Q9NZD2).
T2 sequence: T1 sequence
As to the kind of experiment: co-IP; HEK293T cotransfected with pFLAG-δ-catenin and pEGFP-GLTP; lysate precipitated with anti-GFP monoclonal antibody and Protein A & G Plus agarose; blot with anti-FLAG.

A further assay deals with T3, GST-GLTP (human) (UniProt Q9NZD2).
T3 sequence: T1 sequence
In words: pull-down; GST-GLTP mixed with lysate of transfected HEK293T cells, 50 mM Tris, 150 mM NaCl, 0.25% NP40, 5 h at 4°C; glutathione-Sepharose beads; blot with anti-FLAG or anti-GFP; only the target purified.

These are yes or no findings as the source states them, for the method shown. For some assays here: In cells and extracts the contact can be indirect. Some results given as binding are weak or reduced against the parent protein; the word gives no strength. For some assays here: Sequences can lack the tags named with a protein.

B1: C-terminal region of human delta-catenin (672-1225 a.a.), pACT2 clone (domain or fragment, UniProt Q9UQB3 672-1225)
chain: MPIIQDALAVLTNAVIIPHSGWENSPLQDDRKIQLHSSQVLRNATGCLRNVSSAGEEARRRMRECDGLTDALLYVIQSALGSSEIDSKTVENCVCILRNLSYRLAAETSQGQHMGTDELDGLLCGEANGKDAESSGCWGKKKKKKKSQDQWDGVGPLPDCAEPPKGIQMLWHPSIVKPYLTLLSECSNPDTLEGAAGALQNLAAGSWKWSVYIRAAVRKEKGLPILVELLRIDNDRVVCAVATALRNMALDVRNKELIGKYAMRDLVHRLPGGNNSNNTASKAMSDDTVTAVCCTLHEVITKNMENAKALRDAGGIEKLVGISKSKGDKHSPKVVKAASQVLNSMWQYRDLRSLYKKDGWSQYHFVASSSTIERDRQRPYSSSRTPSISPVRVSPNNRSASAPASPREMISLKERKTDYECTGSNATYHGAKGEHTSRKDAMTAQNTGISTLYRNSYGAPAEDIKHNQVSAQPVPQEPSRKDYETYQPFQNSTRNYDESFFEDQVHHRPPASEYTMHLGLKSTGNYVDFYSAARPYSELNYETSHYPASPDSWV
For B1, the binding entry in assay [1] is given as “binds”.

B2: FLAG-C-terminal δ-catenin (672-1225 a.a.) (domain or fragment, UniProt Q9UQB3 672-1225)
chain: B1 chain
Turning to B2, the binding result in the assay with EGFP-GLTP (human) and in the assay with GST-GLTP (human) was “binds” throughout.

B3: FLAG-δ-catenin (full length) (protein, UniProt Q9UQB3 1-1225)
chain: MFARKPPGAAPLGAMPVPDQPSSASEKTSSLSPGLNTSNGDGSETETTSAILASVKEQELQFERLTRELEAERQIVASQLERCKLGSETGSMSSMSSAEEQFQWQSQDGQKDIEDELTTGLELVDSCIRSLQESGILDPQDYSTGERPSLLSQSALQLNSKPEGSFQYPASYHSNQTLALGETTPSQLPARGTQARATGQSFSQGTTSRAGHLAGPEPAPPPPPPPREPFAPSLGSAFHLPDAPPAAAAAALYYSSSTLPAPPRGGSPLAAPQGGSPTKLQRGGSAPEGATYAAPRGSSPKQSPSRLAKSYSTSSPINIVVSSAGLSPIRVTSPPTVQSTISSSPIHQLSSTIGTYATLSPTKRLVHASEQYSKHSQELYATATLQRPGSLAAGSRASYSSQHGHLGPELRALQSPEHHIDPIYEDRVYQKPPMRSLSQSQGDPLPPAHTGTYRTSTAPSSPGVDSVPLQRTGSQHGPQNAAAATFQRASYAAGPASNYADPYRQLQYCPSVESPYSKSGPALPPEGTLARSPSIDSIQKDPREFGWRDPELPEVIQMLQHQFPSVQSNAAAYLQHLCFGDNKIKAEIRRQGGIQLLVDLLDHRMTEVHRSACGALRNLVYGKANDDNKIALKNCGGIPALVRLLRKTTDLEIRELVTGVLWNLSSCDALKMPIIQDALAVLTNAVIIPHSGWENSPLQDDRKIQLHSSQVLRNATGCLRNVSSAGEEARRRMRECDGLTDALLYVIQSALGSSEIDSKTVENCVCILRNLSYRLAAETSQGQHMGTDELDGLLCGEANGKDAESSGCWGKKKKKKKSQDQWDGVGPLPDCAEPPKGIQMLWHPSIVKPYLTLLSECSNPDTLEGAAGALQNLAAGSWKWSVYIRAAVRKEKGLPILVELLRIDNDRVVCAVATALRNMALDVRNKELIGKYAMRDLVHRLPGGNNSNNTASKAMSDDTVTAVCCTLHEVITKNMENAKALRDAGGIEKLVGISKSKGDKHSPKVVKAASQVLNSMWQYRDLRSLYKKDGWSQYHFVASSSTIERDRQRPYSSSRTPSISPVRVSPNNRSASAPASPREMISLKERKTDYECTGSNATYHGAKGEHTSRKDAMTAQNTGISTLYRNSYGAPAEDIKHNQVSAQPVPQEPSRKDYETYQPFQNSTRNYDESFFEDQVHHRPPASEYTMHLGLKSTGNYVDFYSAARPYSELNYETSHYPASPDSWV
As to B3, the binding result in the assay with GST-GLTP (human) was “no binding”.

B4: FLAG-N-terminal δ-catenin (1-692 a.a.) (domain or fragment, UniProt Q9UQB3 1-692)
chain: MFARKPPGAAPLGAMPVPDQPSSASEKTSSLSPGLNTSNGDGSETETTSAILASVKEQELQFERLTRELEAERQIVASQLERCKLGSETGSMSSMSSAEEQFQWQSQDGQKDIEDELTTGLELVDSCIRSLQESGILDPQDYSTGERPSLLSQSALQLNSKPEGSFQYPASYHSNQTLALGETTPSQLPARGTQARATGQSFSQGTTSRAGHLAGPEPAPPPPPPPREPFAPSLGSAFHLPDAPPAAAAAALYYSSSTLPAPPRGGSPLAAPQGGSPTKLQRGGSAPEGATYAAPRGSSPKQSPSRLAKSYSTSSPINIVVSSAGLSPIRVTSPPTVQSTISSSPIHQLSSTIGTYATLSPTKRLVHASEQYSKHSQELYATATLQRPGSLAAGSRASYSSQHGHLGPELRALQSPEHHIDPIYEDRVYQKPPMRSLSQSQGDPLPPAHTGTYRTSTAPSSPGVDSVPLQRTGSQHGPQNAAAATFQRASYAAGPASNYADPYRQLQYCPSVESPYSKSGPALPPEGTLARSPSIDSIQKDPREFGWRDPELPEVIQMLQHQFPSVQSNAAAYLQHLCFGDNKIKAEIRRQGGIQLLVDLLDHRMTEVHRSACGALRNLVYGKANDDNKIALKNCGGIPALVRLLRKTTDLEIRELVTGVLWNLSSCDALKMPIIQDALAVLTNAVIIPHSG
For B4, the binding entry with GST-GLTP (human) was “no binding”.
